Source: the supplement of paper PMC8728848
This is one part of the list.

How the values were obtained:
Assay in all cases: glycan array binding signal (z-score within array); higher = stronger binding
Details in all cases: glycan notation: IUPAC condensed, linker removed
Gal3S(b1-4)Glc = target: Gal3S(b1-4)Glc
How it was run: (§1)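 Arrays were curated from the Consortium for Functional Glycomics database, 3228 in total, and kept only where the protein sequence was available. Binding is expressed as a within-array Z-score. This score was averaged across arrays of the same protein sequence at different concentrations or buffers and across linkers, and negative values can be read as non-binding.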

Gal3S(b1-4)Glc6S = target: Gal3S(b1-4)Glc6S
How it was run: as §1

Gal3S(b1-4)GlcNAc = target: Gal3S(b1-4)GlcNAc
How it was run: as §1

[1] = target: Gal3S(b1-4)[Fuc(a1-3)]Glc6S
How it was run: as §1

[2] = target: Gal3S(b1-4)[Fuc(a1-3)]GlcNAc
How it was run: as §1

[3] = target: Gal3S(b1-4)[Fuc(a1-3)]GlcNAc6S
How it was run: as §1

Gal3S4S(b1-4)GlcNAc = target: Gal3S4S(b1-4)GlcNAc
How it was run: as §1

Gal3S6S(b1-4)GlcNAc = target: Gal3S6S(b1-4)GlcNAc
How it was run: as §1

Gal3S6S(b1-4)GlcNAc6S = target: Gal3S6S(b1-4)GlcNAc6S
How it was run: as §1

Gal4S(b1-4)GlcNAc = target: Gal4S(b1-4)GlcNAc
How it was run: as §1

Gal4S6S(b1-4)GlcNAc = target: Gal4S6S(b1-4)GlcNAc
How it was run: as §1

Gal6P(b1-4)GlcNAc = target: Gal6P(b1-4)GlcNAc
How it was run: as §1

Gal6S(b1-3)GlcNAc = target: Gal6S(b1-3)GlcNAc
How it was run: as §1

Gal6S(b1-3)GlcNAc6S = target: Gal6S(b1-3)GlcNAc6S
How it was run: as §1

Gal6S(b1-4)Glc = target: Gal6S(b1-4)Glc
How it was run: as §1

Gal6S(b1-4)Glc6S = target: Gal6S(b1-4)Glc6S
How it was run: as §1

Gal6S(b1-4)GlcNAc = target: Gal6S(b1-4)GlcNAc
How it was run: as §1

Gal6S(b1-4)GlcNAc6S = target: Gal6S(b1-4)GlcNAc6S
How it was run: as §1

GalNAc(a1-3)Gal = target: GalNAc(a1-3)Gal
How it was run: as §1

GalNAc(a1-3)GalNAc = target: GalNAc(a1-3)GalNAc
How it was run: as §1

[4] = target: GalNAc(a1-3)GalNAc(b1-3)Gal(a1-4)Gal(b1-4)Glc
How it was run: as §1

[5] = target: GalNAc(a1-3)GalNAc(b1-3)Gal(a1-4)Gal(b1-4)GlcNAc
How it was run: as §1

GalNAc(b1-3)Gal = target: GalNAc(b1-3)Gal
How it was run: as §1

[6] = target: GalNAc(b1-3)Gal(a1-4)Gal(b1-4)GlcNAc
How it was run: as §1

[7] = target: GalNAc(b1-3)Gal(a1-4)Gal(b1-4)GlcNAc(b1-3)Gal(b1-4)Glc
How it was run: as §1

[8] = target: GalNAc(b1-3)Gal(a1-6)Gal(b1-4)Glc
How it was run: as §1

GalNAc(b1-3)GalNAc = target: GalNAc(b1-3)GalNAc
How it was run: as §1

GalNAc(b1-3)GlcNAc = target: GalNAc(b1-3)GlcNAc
How it was run: as §1

GalNAc(b1-4)Gal(b1-4)Glc = target: GalNAc(b1-4)Gal(b1-4)Glc
How it was run: as §1

GalNAc(b1-4)GlcNAc = target: GalNAc(b1-4)GlcNAc
How it was run: as §1

[9] = target: GalNAc(b1-4)GlcNAc(b1-2)Man
How it was run: as §1

[10] = target: GalNAc(b1-4)GlcNAc(b1-2)Man(a1-3)[GalNAc(b1-4)GlcNAc(b1-2)Man(a1-6)]Man(b1-4)GlcNAc(b1-4)GlcNAc
How it was run: as §1

[11] = target: GalNAc(b1-4)GlcNAc(b1-3)GalNAc(b1-4)GlcNAc
How it was run: as §1

GalNAc(b1-4)GlcNAc6S = target: GalNAc(b1-4)GlcNAc6S
How it was run: as §1

GalNAc(b1-6)GalNAc = target: GalNAc(b1-6)GalNAc
How it was run: as §1

GalNAc3S(b1-4)GlcNAc = target: GalNAc3S(b1-4)GlcNAc
How it was run: as §1

GalNAc3S(b1-4)GlcNAc3S = target: GalNAc3S(b1-4)GlcNAc3S
How it was run: as §1

[12] = target: GalNAc3S(b1-4)[Fuc(a1-3)]GlcNAc
How it was run: as §1

GalNAc4S6S(b1-4)GlcNAc = target: GalNAc4S6S(b1-4)GlcNAc
How it was run: as §1

GalNAc6S(b1-4)GlcNAc = target: GalNAc6S(b1-4)GlcNAc
How it was run: as §1

Glc(a1-4)Glc = target: Glc(a1-4)Glc
How it was run: as §1

[13] = target: Glc(a1-4)Glc(a1-4)Glc(a1-4)Glc
How it was run: as §1

Glc(a1-6)Glc(a1-6)Glc = target: Glc(a1-6)Glc(a1-6)Glc
How it was run: as §1

[14] = target: Glc(a1-6)Glc(a1-6)Glc(a1-6)Glc
How it was run: as §1

Glc(b1-4)Glc = target: Glc(b1-4)Glc
How it was run: as §1

B1: Als3-2 (Candida albicans) (protein)
chain: KTITGVFNSFNSLTWSNAATYNYKGPGTPTWNAVLGWSLDGTSASPGDTFTLNMPCVFKFTTSQTSVDLTAHGVKYATCQFQAGEEFMTFSTLTCTVSNTLTPSIKALGTVTLPLAFNVGGTGSSVDLEDSKCFTAGTNTVTFNDGGKKISINVDFERSNVDPKGYLTD
For B1, the “glycan array binding signal (z-score)” value (Gal3S(b1-4)Glc) was -0.673, the “glycan array binding signal (z-score)” value (Gal3S(b1-4)Glc6S) was -0.35 and the “glycan array binding signal (z-score)” value (Gal3S(b1-4)GlcNAc) was 0.36. For the same binder, the “glycan array binding signal (z-score)” value [1] was -0.51, the “glycan array binding signal (z-score)” value [2] was -0.475 and the “glycan array binding signal (z-score)” value [3] was -0.048. The “glycan array binding signal (z-score)” value (Gal3S4S(b1-4)GlcNAc) was 3.1, the “glycan array binding signal (z-score)” value (Gal3S6S(b1-4)GlcNAc) was -0.446 and the “glycan array binding signal (z-score)” value (Gal3S6S(b1-4)GlcNAc6S) was 0.82. For the same binder, the “glycan array binding signal (z-score)” value (Gal4S(b1-4)GlcNAc) was -0.673, the “glycan array binding signal (z-score)” value (Gal4S6S(b1-4)GlcNAc) was -0.189 and the “glycan array binding signal (z-score)” value (Gal6P(b1-4)GlcNAc) was -0.665. For the same binder, the “glycan array binding signal (z-score)” value (Gal6S(b1-3)GlcNAc) was 3.68, the “glycan array binding signal (z-score)” value (Gal6S(b1-3)GlcNAc6S) was -0.346 and the “glycan array binding signal (z-score)” value (Gal6S(b1-4)Glc) was -0.531. For the same binder, the “glycan array binding signal (z-score)” value (Gal6S(b1-4)Glc6S) was 0.573, the “glycan array binding signal (z-score)” value (Gal6S(b1-4)GlcNAc) was -0.562 and the “glycan array binding signal (z-score)” value (Gal6S(b1-4)GlcNAc6S) was -0.36. The “glycan array binding signal (z-score)” value (GalNAc(a1-3)Gal) was 1.88, the “glycan array binding signal (z-score)” value (GalNAc(a1-3)GalNAc) was -0.59 and the “glycan array binding signal (z-score)” value [4] was -0.542. For the same binder, the “glycan array binding signal (z-score)” value [5] was -0.488, the “glycan array binding signal (z-score)” value (GalNAc(b1-3)Gal) was -0.434 and the “glycan array binding signal (z-score)” value [6] was -0.023. For the same binder, the “glycan array binding signal (z-score)” value [7] was 0.653, the “glycan array binding signal (z-score)” value [8] was -0.635 and the “glycan array binding signal (z-score)” value (GalNAc(b1-3)GalNAc) was -0.16. For the same binder, the “glycan array binding signal (z-score)” value (GalNAc(b1-3)GlcNAc) was -0.164, the “glycan array binding signal (z-score)” value (GalNAc(b1-4)Gal(b1-4)Glc) was -0.429 and the “glycan array binding signal (z-score)” value (GalNAc(b1-4)GlcNAc) was 0.934. For the same binder, the “glycan array binding signal (z-score)” value [9] was 0.112, the “glycan array binding signal (z-score)” value [10] was -0.421 and the “glycan array binding signal (z-score)” value [11] was 0.905. For the same binder, the “glycan array binding signal (z-score)” value (GalNAc(b1-4)GlcNAc6S) was 0.73, the “glycan array binding signal (z-score)” value (GalNAc(b1-6)GalNAc) was -0.082 and the “glycan array binding signal (z-score)” value (GalNAc3S(b1-4)GlcNAc) was -0.156. The “glycan array binding signal (z-score)” value (GalNAc3S(b1-4)GlcNAc3S) was -0.584, the “glycan array binding signal (z-score)” value [12] was -0.351 and the “glycan array binding signal (z-score)” value (GalNAc4S6S(b1-4)GlcNAc) was -0.416. The “glycan array binding signal (z-score)” value (GalNAc6S(b1-4)GlcNAc) was -0.595, the “glycan array binding signal (z-score)” value (Glc(a1-4)Glc) was -0.488 and the “glycan array binding signal (z-score)” value [13] was -0.222. The “glycan array binding signal (z-score)” value (Glc(a1-6)Glc(a1-6)Glc) was -0.642, the “glycan array binding signal (z-score)” value [14] was 0.567 and the “glycan array binding signal (z-score)” value (Glc(b1-4)Glc) was -0.551.
